Experimental data taken from article PMC4336329 (PLoS ONE, 2015).
The campaign covered roughly 310,000 compounds. About 2,200 (0.71%) showed an effect of 50% or more. Effects have a minus sign here. The list shows a part of the results.

Target: human ether-à-go-go-related gene (hERG) potassium channel (human, UniProt Q12809)
Assay: primary screen, population patch clamp on CHO cells stably expressing hERG

Chain of human ether-à-go-go-related gene (hERG) potassium channel (Q12809 whole entry, looked up): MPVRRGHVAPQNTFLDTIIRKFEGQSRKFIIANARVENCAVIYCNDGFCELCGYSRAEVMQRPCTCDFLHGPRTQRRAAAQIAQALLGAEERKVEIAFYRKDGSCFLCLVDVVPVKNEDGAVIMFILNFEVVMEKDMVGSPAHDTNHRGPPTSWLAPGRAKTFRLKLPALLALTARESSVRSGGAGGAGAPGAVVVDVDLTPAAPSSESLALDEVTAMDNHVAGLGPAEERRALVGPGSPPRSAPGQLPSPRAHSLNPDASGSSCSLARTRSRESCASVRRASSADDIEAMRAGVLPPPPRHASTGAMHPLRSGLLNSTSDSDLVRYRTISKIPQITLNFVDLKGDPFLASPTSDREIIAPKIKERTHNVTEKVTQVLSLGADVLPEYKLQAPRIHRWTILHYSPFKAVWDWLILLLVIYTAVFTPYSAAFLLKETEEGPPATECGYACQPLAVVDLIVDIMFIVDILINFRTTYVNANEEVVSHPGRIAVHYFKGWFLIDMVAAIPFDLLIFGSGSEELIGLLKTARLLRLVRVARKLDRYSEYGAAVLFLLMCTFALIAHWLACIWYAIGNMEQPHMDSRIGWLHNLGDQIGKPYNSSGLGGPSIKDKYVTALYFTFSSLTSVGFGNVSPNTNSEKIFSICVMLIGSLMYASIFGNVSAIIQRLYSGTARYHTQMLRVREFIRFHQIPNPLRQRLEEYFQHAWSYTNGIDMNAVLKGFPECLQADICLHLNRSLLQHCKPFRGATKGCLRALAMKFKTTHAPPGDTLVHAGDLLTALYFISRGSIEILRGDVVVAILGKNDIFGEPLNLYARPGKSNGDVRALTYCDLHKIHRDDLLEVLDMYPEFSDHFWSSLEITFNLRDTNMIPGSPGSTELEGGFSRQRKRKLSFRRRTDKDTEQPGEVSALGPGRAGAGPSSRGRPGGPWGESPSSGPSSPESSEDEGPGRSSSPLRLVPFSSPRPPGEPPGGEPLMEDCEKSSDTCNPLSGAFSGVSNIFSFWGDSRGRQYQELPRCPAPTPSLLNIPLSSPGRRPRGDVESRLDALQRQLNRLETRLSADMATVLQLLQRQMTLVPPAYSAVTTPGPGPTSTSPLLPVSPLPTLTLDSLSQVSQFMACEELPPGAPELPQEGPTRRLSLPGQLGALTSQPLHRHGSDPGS

Q: `CCOC(=O)CNC(=O)CSc1nnc(Cn2cnc3ccccc32)n1C` was tested. Which “hERG current change (%, negative = inhibition) at 1uM” value did it give?
A: 2.46%

Q: For `Cc1sc(NC(=O)c2ccco2)c(C(c2cccnc2)N2CCCC2)c1C` (centres unmarked), which “hERG current change (%, negative = inhibition) at 1uM” value is on record?
A: 15.9%

Q: How did the “hERG current change (%, negative = inhibition) at 1uM” value turn out when `CCOC(=O)CCNC(=O)N1CCCC(C(=O)c2cccc(OC(C)C)c2)C1` (centres unmarked) was run?
A: 5.89%

Q: Which “hERG current change (%, negative = inhibition) at 1uM” value does the source give for `COc1ccc(C2CCCN2CC(O)COc2ccccc2C(C)C)cc1` (centres unmarked) here?
A: 1.71%

Q: How did the “hERG current change (%, negative = inhibition) at 1uM” value turn out when `CCOc1ccc(CN(C)C(=O)CNC(=O)c2ccc3ccccc3c2)cc1OC` was run?
A: 3.85%

Q: How did the “hERG current change (%, negative = inhibition) at 1uM” value turn out when `O=C(CSC(=S)N1CCOCC1)c1cc2ccccc2oc1=O` was run?
A: 1.52%

Q: `O=C(O)CSCC(=O)N1CCCCC1` was tested. Which “hERG current change (%, negative = inhibition) at 1uM” value did it give?
A: 8.66%

Q: `COc1ccc(OC)c(/C=N/NC2=NS(=O)(=O)c3ccccc32)c1` was tested. Which “hERG current change (%, negative = inhibition) at 1uM” value did it give?
A: -5.31%

Q: `OCC[C@@H]1C[C@@H](O)[C@H](O)[C@]2(CCc3ccccc3O2)O1` was tested. Which “hERG current change (%, negative = inhibition) at 1uM” value did it give?
A: 15.8%

Q: How did the “hERG current change (%, negative = inhibition) at 1uM” value turn out when `NC(=O)C1(N2CCCCC2)CCN(S(=O)(=O)c2cc(Cl)sc2Cl)CC1` was run?
A: -1.33%

Q: For `COc1ccc(CNS(=O)(=O)c2ccc(S(=O)(=O)N3CCCCC3)cc2)cc1`, which “hERG current change (%, negative = inhibition) at 1uM” value is on record?
A: 10.9%

Q: For `O=C(CSc1n[nH]c(=O)n1Cc1ccccc1)Nc1ccc(F)c(F)c1F`, which “hERG current change (%, negative = inhibition) at 1uM” value is on record?
A: 15.7%

Q: Which “hERG current change (%, negative = inhibition) at 1uM” value does the source give for `CCOc1ccc(NC(=O)CN(C)Cc2cc(=O)n3c(-c4ccccc4)csc3n2)cc1OCC` here?
A: 10.9%

Q: Which “hERG current change (%, negative = inhibition) at 1uM” value does the source give for `Cc1ccc(N2C(=O)C(CN3CCOCC3)C2c2ccccc2)cc1` (centres unmarked) here?
A: -1.12%

Q: For `c1ccc(-c2nc(Sc3ncnc4c3cnn4-c3ccccc3)n[nH]2)cc1`, which “hERG current change (%, negative = inhibition) at 1uM” value is on record?
A: 3%

Q: For `COc1ccc(CNC(=O)c2cnc(C)cn2)c(OC)c1`, which “hERG current change (%, negative = inhibition) at 1uM” value is on record?
A: -5.1%

Q: How did the “hERG current change (%, negative = inhibition) at 1uM” value turn out when `COc1ccc(NC(=O)NS(=O)(=O)c2ccc(C)cc2)cn1` was run?
A: 13%

Q: For `CC1=C(C(=O)Nc2ccccc2)S(=O)(=O)CCO1`, which “hERG current change (%, negative = inhibition) at 1uM” value is on record?
A: 13.3%

Q: With `Cc1cc(N2CCOCC2)ccc1/C=C1\SC(=O)N(C(C)C)C1=O` as the molecule, how does the “hERG current change (%, negative = inhibition) at 1uM” value read?
A: -15.4%

Q: Which “hERG current change (%, negative = inhibition) at 1uM” value does the source give for `O=C1C=C(NC2CCCCC2)CCC1` here?
A: -1.37%

Q: For `COc1ccc(OC)c(NC(=O)CCCC(=O)NC2CCCCC2)c1`, which “hERG current change (%, negative = inhibition) at 1uM” value is on record?
A: 10.6%

Q: With `COC(=O)CCCNc1ncccc1[N+](=O)[O-]` as the molecule, how does the “hERG current change (%, negative = inhibition) at 1uM” value read?
A: 14.8%

Q: With `Cc1nn(C)c(C)c1NC(=O)Nc1cccc(C(F)(F)F)c1` as the molecule, how does the “hERG current change (%, negative = inhibition) at 1uM” value read?
A: -9.49%

Q: `NC(=O)NC(Cc1ccccc1)C(=O)Nc1ccc(S(N)(=O)=O)cc1` (centres unmarked) was tested. Which “hERG current change (%, negative = inhibition) at 1uM” value did it give?
A: -5.7%

Q: With `CCN(CC)C(=O)CSc1nnc(CNc2ccc(F)cc2)n1Cc1ccco1` as the molecule, how does the “hERG current change (%, negative = inhibition) at 1uM” value read?
A: 10.2%

Q: With `COc1ccc(-c2cc(C)no2)cc1S(=O)(=O)N(C)c1cccc(C)c1` as the molecule, how does the “hERG current change (%, negative = inhibition) at 1uM” value read?
A: -62.5%

Q: `Oc1cccc(Nc2nc(O)c(/C=C3\C=Nc4ccccc43)s2)c1` was tested. Which “hERG current change (%, negative = inhibition) at 1uM” value did it give?
A: 12.8%

Q: How did the “hERG current change (%, negative = inhibition) at 1uM” value turn out when `COc1ccc(OCC(O)CN2CCN(c3ccccc3)CC2)cc1.Cl` (centres unmarked) was run?
A: 2.9%

Q: For `Nc1nnc(SCC(=O)NC2CCCCCC2)s1`, which “hERG current change (%, negative = inhibition) at 1uM” value is on record?
A: 15.7%

Q: For `Cc1c(CCO)c(=O)n(-c2ccccc2)n1S(=O)(=O)c1ccc(F)cc1`, which “hERG current change (%, negative = inhibition) at 1uM” value is on record?
A: 11.9%

Q: For `CCC(C(=O)Nc1ccc(C(C)C)cc1)c1ccccc1` (centres unmarked), which “hERG current change (%, negative = inhibition) at 1uM” value is on record?
A: 9.2%

Q: Which “hERG current change (%, negative = inhibition) at 1uM” value does the source give for `CCNC(=S)/C(=C(/[O-])c1ccc([N+](=O)[O-])cc1)[n+]1ccccc1` here?
A: 15.3%

Q: Which “hERG current change (%, negative = inhibition) at 1uM” value does the source give for `CC1CCN(Cc2nnnn2CCCC(=O)NCCc2cnn(C)c2)CC1` here?
A: 16%

Q: How did the “hERG current change (%, negative = inhibition) at 1uM” value turn out when `O=C1Nc2cc3c(cc2C1=O)sc1ccccc13` was run?
A: 19.4%

Q: For `Cc1cccc(CCNC(=O)CC2C(=O)NCCN2Cc2ccccc2C)n1` (centres unmarked), which “hERG current change (%, negative = inhibition) at 1uM” value is on record?
A: 4.42%

Q: Which “hERG current change (%, negative = inhibition) at 1uM” value does the source give for `CC(=O)N1CCN(c2ccccc2NC(=O)Cc2ccc(Cl)cc2)CC1` here?
A: -17.2%

Q: `Cc1nn(-c2ccccc2)c(C)c1C(=O)OCC(=O)Nc1ccccc1` was tested. Which “hERG current change (%, negative = inhibition) at 1uM” value did it give?
A: -0.52%

Q: How did the “hERG current change (%, negative = inhibition) at 1uM” value turn out when `Cc1ccc(S(=O)(=O)N2CCCC2)cc1C(=O)NCc1ccccn1` was run?
A: 9.69%

Q: Which “hERG current change (%, negative = inhibition) at 1uM” value does the source give for `CC(Cc1ccccc1)NC(=O)CCCN1C(=O)c2ccccc2C1=O` (centres unmarked) here?
A: 9.28%

Q: `CNC(=O)NC(=O)COC(=O)c1ccccc1OCc1ccccc1` was tested. Which “hERG current change (%, negative = inhibition) at 1uM” value did it give?
A: 10.1%

Q: With `CCCCN(CCCC)C(=S)N/N=C/c1c(C)[nH]n(-c2ccccc2)c1=O` as the molecule, how does the “hERG current change (%, negative = inhibition) at 1uM” value read?
A: 15.8%

Q: How did the “hERG current change (%, negative = inhibition) at 1uM” value turn out when `Cc1cnc(=O)[nH]c1SCc1ccccc1F` was run?
A: 15%

Q: With `O=C(NC1CCN(C(=O)Nc2cccc(Cl)c2)CC1)C1CCCCC1` as the molecule, how does the “hERG current change (%, negative = inhibition) at 1uM” value read?
A: 0.0523%

Q: With `CCC(C)(C)NC(=O)CN(C(=O)c1csnn1)c1ccccc1-c1ccccc1` as the molecule, how does the “hERG current change (%, negative = inhibition) at 1uM” value read?
A: 11.1%

Q: How did the “hERG current change (%, negative = inhibition) at 1uM” value turn out when `CC[C@@]1(O)C(=O)OCc2c1cc1n(c2=O)Cc2cc3ccccc3nc2-1` was run?
A: 7.44%

Q: With `CCOc1ccc(S(=O)(=O)Nc2ccccc2C(=O)N(C)C2CCN(C)CC2)cc1` as the molecule, how does the “hERG current change (%, negative = inhibition) at 1uM” value read?
A: 18.5%

Q: `CC(C)(C)c1nnc2sc(SCCN3C(=O)c4ccccc4C3=O)nn2c1=O` was tested. Which “hERG current change (%, negative = inhibition) at 1uM” value did it give?
A: -2.56%

Q: `Cc1ccn2cc(CNS(=O)(=O)c3ccc4c(c3)OCCO4)nc2c1` was tested. Which “hERG current change (%, negative = inhibition) at 1uM” value did it give?
A: 4.12%

Q: `Cn1c(CSc2ncccn2)nnc1SCC(=O)N1CCCCCC1` was tested. Which “hERG current change (%, negative = inhibition) at 1uM” value did it give?
A: 25.4%

Q: Which “hERG current change (%, negative = inhibition) at 1uM” value does the source give for `CC(CN1C(C)CCCC1C)OC(=O)c1ccc(Cl)cc1` (centres unmarked) here?
A: -10.8%

Q: `CCOc1cc(/C=N/NC(=O)c2cccs2)ccc1OC(=O)N1CCOCC1` was tested. Which “hERG current change (%, negative = inhibition) at 1uM” value did it give?
A: 16.1%

Q: How did the “hERG current change (%, negative = inhibition) at 1uM” value turn out when `CC(/C=C/c1ccc2c(c1)OCO2)=N/NC(=O)c1ccncc1` was run?
A: -1.24%

Q: Which “hERG current change (%, negative = inhibition) at 1uM” value does the source give for `O=C(Nc1ccc2c(c1)OCO2)c1ccc(=O)[nH]n1` here?
A: 6.05%

Q: For `CCOC(=O)c1[nH]c2ccc(OC)cc2c1NC(=O)CCN1CCSCC1`, which “hERG current change (%, negative = inhibition) at 1uM” value is on record?
A: 3.32%

Q: How did the “hERG current change (%, negative = inhibition) at 1uM” value turn out when `CCc1nnc(NC(=O)CSc2nnc(CSc3nc(C)cc(C)n3)n2C)s1` was run?
A: 12.1%

Q: `Cc1nn2c(C)c(C(=O)Nc3ccccc3)cnc2c1C#N` was tested. Which “hERG current change (%, negative = inhibition) at 1uM” value did it give?
A: 14%

Q: With `O=C(NCc1ccccn1)c1c(O)c2c([nH]c1=O)CCCC2` as the molecule, how does the “hERG current change (%, negative = inhibition) at 1uM” value read?
A: 11.5%

Q: With `COc1ccc(C(=O)C2CCN(C(=O)c3ccc(C)cc3)CC2)cc1` as the molecule, how does the “hERG current change (%, negative = inhibition) at 1uM” value read?
A: -47.7%

Q: Which “hERG current change (%, negative = inhibition) at 1uM” value does the source give for `COC(=O)c1ccc(NCC(=O)Nc2cc(C)cc(C)c2)cc1` here?
A: 5.25%
